{"source": "PubChem BioAssay AID504333", "about": "(National Center for Advancing Translational Sciences (NCATS), 2011)", "note": "The campaign covered roughly 360,000 compounds. About 16,000 (4.4%) were called active. The shares of active, inactive and inconclusive entries below differ from those in the screen. The call rests on the fitted dose curve; in most records, active means well fitted inhibition curve with a large enough effect; inconclusive means small, poorly fitted or top-dose-only effect; inactive means no such curve, though single readings can be large or run the other way. Potencies of inconclusive entries are doubtful fits and often do not repeat. Potency means the concentration at half of the fitted maximal effect; tags describe the fitted curve by direction and shape.", "data": [{"biological_target": "Bromodomain adjacent to zinc finger domain protein 2B (Homo sapiens) (UniProt Q9UIF8)", "sequence (Q9UIF8 whole entry, looked up, the tested form may be a part)": "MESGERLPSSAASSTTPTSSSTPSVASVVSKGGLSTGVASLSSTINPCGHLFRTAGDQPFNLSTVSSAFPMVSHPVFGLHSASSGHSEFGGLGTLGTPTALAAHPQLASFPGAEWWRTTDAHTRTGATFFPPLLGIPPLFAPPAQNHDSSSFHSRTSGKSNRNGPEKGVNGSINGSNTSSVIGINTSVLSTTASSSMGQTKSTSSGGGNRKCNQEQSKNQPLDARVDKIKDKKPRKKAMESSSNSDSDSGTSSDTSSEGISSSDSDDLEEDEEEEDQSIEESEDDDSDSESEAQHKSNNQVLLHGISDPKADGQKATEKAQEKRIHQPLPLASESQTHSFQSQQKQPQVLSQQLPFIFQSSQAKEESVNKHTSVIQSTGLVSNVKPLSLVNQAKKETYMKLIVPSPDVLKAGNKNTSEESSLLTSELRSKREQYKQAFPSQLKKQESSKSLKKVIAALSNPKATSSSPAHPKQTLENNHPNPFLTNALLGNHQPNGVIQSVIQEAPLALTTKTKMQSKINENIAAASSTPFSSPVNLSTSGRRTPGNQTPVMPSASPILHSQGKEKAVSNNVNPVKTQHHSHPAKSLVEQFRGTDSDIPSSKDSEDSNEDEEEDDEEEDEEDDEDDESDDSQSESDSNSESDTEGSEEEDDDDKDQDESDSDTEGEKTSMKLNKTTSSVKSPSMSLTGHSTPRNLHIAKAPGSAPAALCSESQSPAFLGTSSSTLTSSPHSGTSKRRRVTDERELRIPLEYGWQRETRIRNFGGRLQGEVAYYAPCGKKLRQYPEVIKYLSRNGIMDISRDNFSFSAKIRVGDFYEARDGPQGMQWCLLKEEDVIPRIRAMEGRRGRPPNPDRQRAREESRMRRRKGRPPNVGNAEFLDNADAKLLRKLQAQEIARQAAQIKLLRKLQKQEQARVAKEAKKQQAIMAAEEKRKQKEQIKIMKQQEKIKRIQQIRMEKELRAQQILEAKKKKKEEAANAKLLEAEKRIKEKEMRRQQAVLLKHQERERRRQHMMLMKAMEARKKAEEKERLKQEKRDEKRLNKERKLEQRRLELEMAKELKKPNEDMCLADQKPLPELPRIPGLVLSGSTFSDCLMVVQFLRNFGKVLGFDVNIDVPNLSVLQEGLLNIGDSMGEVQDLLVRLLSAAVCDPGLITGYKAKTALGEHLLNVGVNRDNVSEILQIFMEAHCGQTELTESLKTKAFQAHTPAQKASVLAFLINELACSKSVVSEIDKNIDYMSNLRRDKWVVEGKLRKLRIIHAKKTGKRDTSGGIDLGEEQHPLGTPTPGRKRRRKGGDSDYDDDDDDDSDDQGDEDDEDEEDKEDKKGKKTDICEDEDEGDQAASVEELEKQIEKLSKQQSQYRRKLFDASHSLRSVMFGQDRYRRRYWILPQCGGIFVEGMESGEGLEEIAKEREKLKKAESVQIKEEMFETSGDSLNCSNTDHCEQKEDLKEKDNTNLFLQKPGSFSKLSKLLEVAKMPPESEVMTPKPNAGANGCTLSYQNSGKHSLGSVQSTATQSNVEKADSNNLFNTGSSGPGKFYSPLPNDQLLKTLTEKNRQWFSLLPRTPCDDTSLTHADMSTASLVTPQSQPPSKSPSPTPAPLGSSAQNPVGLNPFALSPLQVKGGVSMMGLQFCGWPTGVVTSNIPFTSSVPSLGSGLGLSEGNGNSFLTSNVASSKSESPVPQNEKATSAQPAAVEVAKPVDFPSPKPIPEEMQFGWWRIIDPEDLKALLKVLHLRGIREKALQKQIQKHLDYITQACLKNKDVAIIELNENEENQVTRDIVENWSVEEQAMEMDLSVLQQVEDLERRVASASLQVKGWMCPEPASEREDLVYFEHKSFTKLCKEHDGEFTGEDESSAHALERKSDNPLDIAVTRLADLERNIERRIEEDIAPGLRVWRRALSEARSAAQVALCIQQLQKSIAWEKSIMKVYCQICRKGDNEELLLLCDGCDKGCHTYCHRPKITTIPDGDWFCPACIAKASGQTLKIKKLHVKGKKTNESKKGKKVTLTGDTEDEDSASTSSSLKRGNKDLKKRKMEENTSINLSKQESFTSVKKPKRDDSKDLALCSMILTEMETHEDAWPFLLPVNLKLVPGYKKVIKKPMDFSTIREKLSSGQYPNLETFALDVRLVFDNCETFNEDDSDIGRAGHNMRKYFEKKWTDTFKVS", "assay": "qHTS Assay for Inhibitors of BAZ2B; further: nearly all actives have a fitted effect of over 60% in size", "settings": "AlphaScreen BAZ2B-H3K14Ac peptide displacement; series mostly up to 114 µM", "procedure,_shortened": "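AlphaScreen displacement of biotin-H3(5-23)K14Ac peptide (50 nM final) from BAZ2B (50 nM final) in PBS pH 7.4, 0.01% Tween-20; complex preformed 30 min RT, then compounds (top 110 uM) 30 min RT, beads 20 min dark.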", "values": [{"smiles": "Cc1ccc(Nc2nc(-c3ccc(S(=O)(=O)N4CCCC4)cc3)cs2)cc1C", "Potency": "inconclusive: 79.4 µM [inhibitor, single point]"}, {"smiles": "Cc1ccc(S(=O)(=O)N2CCN(C(=O)/C=C/c3ccco3)CC2)cc1", "Potency": "active: 50.1 µM"}, {"smiles": "Cc1ccc(/C=N/NC(=O)c2ccncc2)o1", "Potency": "inconclusive: 20 µM [inhibitor, partial curve, poor fit]"}, {"smiles": "O=C(CCCN1C(=O)/C(=C/c2cccs2)SC1=S)Nc1ccc(C(=O)O)cc1", "Potency": "inconclusive: 70.8 µM [inhibitor, single point]"}, {"smiles": "O=C(/C=C/c1cn(CC(O)CN2CCc3ccccc32)c2ccccc12)c1ccc(Br)cc1", "note": "(stereo not given)", "Potency": "inconclusive: 11.2 µM [inhibitor, full curve]"}, {"smiles": "O=C(/C=C1\\NC2(CCCC2)Cc2ccccc21)N1CCOCC1", "Potency": "inconclusive: 79.4 µM [inhibitor, single point]"}, {"smiles": "Cc1ccc(-n2ncc3c2CC(C)(C)CC3NC(=O)c2ccccn2)cc1", "note": "(stereo not given)", "Potency": "inconclusive: 70.8 µM [inhibitor, single point]"}, {"smiles": "COc1cc(/C=C2\\SC(=O)N(CCN)C2=O)ccc1OS(=O)(=O)c1cc(C)ccc1C", "Potency": "inconclusive: 35.5 µM [inhibitor, partial curve]"}, {"smiles": "CN(CC(=O)Nc1ncn[nH]1)S(=O)(=O)c1ccc(Br)cc1", "Potency": "inconclusive: 89.1 µM [inhibitor, partial curve, poor fit]"}, {"smiles": "CC1CC(C)CN(C(=O)CSc2nnc(-c3ccc(F)cc3)o2)C1", "note": "(stereo not given)", "Potency": "inactive"}, {"smiles": "CCN1C(=O)C(Cc2nc3ccccc3c(=O)n2-c2ccccc2)c2ccccc21", "note": "(stereo not given)", "Potency": "inconclusive: 89.1 µM [inhibitor, single point]"}, {"smiles": "Cc1cc(C)cc(N2C(=O)CS(=O)(=O)C23C(=O)N(Cc2ccccc2)c2ccccc23)c1", "note": "(stereo not given)", "Potency": "inactive"}, {"smiles": "Cc1cc(OCC(=O)Nc2ncn[nH]2)c(C)c(C)c1Br", "Potency": "inactive"}, {"smiles": "O=C(O)C(=O)/C(=C\\c1ccc(Cl)cc1)c1ccc2ccccc2n1", "Potency": "inconclusive: 89.1 µM [inhibitor, single point]"}, {"smiles": "Cc1sc(N)c(C(=O)c2ccccc2)c1C", "Potency": "inconclusive: 44.7 µM [inhibitor, partial curve]"}, {"smiles": "CCOc1[nH]n(-c2ccccc2)c(=O)c1C=Nc1ccc(F)cc1F", "Potency": "inconclusive: 79.4 µM [inhibitor, single point]"}, {"smiles": "Cc1cc(OCC(=O)OCC(=O)Nc2cccnc2Cl)ccc1Cl", "Potency": "inconclusive: 39.8 µM [inhibitor, single point]"}, {"smiles": "O=C(COC(=O)Cc1ccc(Cl)cc1)Nc1ccc2[nH]c(=O)[nH]c2c1", "Potency": "inconclusive: 89.1 µM [inhibitor, single point]"}, {"smiles": "Cc1ccc(C)c(Nc2nn3c(=O)c4ccc(C(=O)N(C)Cc5ccccc5)cc4nc3s2)c1", "Potency": "inactive"}, {"smiles": "Cc1ccccc1C(=O)Nc1cccc(C(=O)OCc2cc(=O)n3c(C)csc3n2)c1", "Potency": "inactive"}, {"smiles": "COc1ccccc1N(CC(O)COc1ccccc1C)S(=O)(=O)c1ccccc1", "note": "(stereo not given)", "Potency": "inactive"}, {"smiles": "COc1ccc(CNC(=O)c2ccc(NC(=O)N3CCSc4ncccc43)cc2)c(OC)c1", "Potency": "inconclusive: 89.1 µM [inhibitor, single point]"}, {"smiles": "Cc1ccc(C(=O)N/N=C2\\CC3CC=CC23)c(C)c1", "note": "(stereo not given)", "Potency": "inactive"}, {"smiles": "O=c1c2ccccc2nc(-c2ccc([N+](=O)[O-])cc2)n1O", "Potency": "inconclusive: 79.4 µM [inhibitor, single point]"}, {"smiles": "Cc1sc(NC(=O)c2ccco2)c(C(=O)c2ccc(Cl)cc2)c1C", "Potency": "inconclusive: 28.2 µM [inhibitor, partial curve]"}, {"smiles": "COc1cc(NC(=O)c2nc(-c3ccc(Cl)cc3)n3c2CCCCC3)cc(OC)c1OC", "Potency": "inactive"}, {"smiles": "COc1ccccc1NS(=O)(=O)/C=C/c1ccccc1", "Potency": "inactive"}, {"smiles": "COC(=O)c1ccc(NC(=S)Nc2ccccc2)cc1", "Potency": "inactive"}, {"smiles": "Cc1ccc(NC(=O)N(Cc2ccco2)C(C)c2ccco2)cc1C", "note": "(stereo not given)", "Potency": "inconclusive: 89.1 µM [inhibitor, single point]"}, {"smiles": "O=C(Cc1ccccc1)Nc1sc2c(c1C(=O)Nc1ccccc1Cl)CCCC2", "Potency": "inactive"}, {"smiles": "CCn1c(=O)n(-c2ccc3c(c2)OCO3)c2nc(-c3cc(OC)ccc3OC)nc(C(N)=O)c21", "Potency": "inconclusive: 89.1 µM [inhibitor, single point]"}, {"smiles": "CCN(CC)CCN(C(=O)C1CCCCC1)c1nc2cc3c(cc2s1)OCO3", "Potency": "inactive"}, {"smiles": "Cc1cccc(N=C2NC(=O)S/C2=C\\c2ccco2)c1", "Potency": "inconclusive: 25.1 µM [inhibitor, full curve]"}, {"smiles": "N=C1S/C(=C\\c2ccco2)C(=O)N1c1nccs1", "Potency": "inconclusive: 50.1 µM [inhibitor, partial curve]"}, {"smiles": "CN(C)C(=O)/C(=C\\c1ccc(-c2cccc([N+](=O)[O-])c2)o1)NC(=O)c1ccccc1", "Potency": "inconclusive: 70.8 µM [inhibitor, single point]"}, {"smiles": "CCn1c(SCC(=O)NC2CCCC2)nnc1-c1c[nH]c2ccccc12", "Potency": "inactive"}, {"smiles": "COc1ccc(NC(=S)N2CCCN(Cc3cccc(Cl)c3)C2)cc1", "Potency": "inconclusive: 39.8 µM [inhibitor, partial curve]"}, {"smiles": "N#CCC(=O)Nc1ccc(C(=O)OCC(=O)C23CC4CC(CC(C4)C2)C3)cc1", "Potency": "inactive"}, {"smiles": "N#Cc1nc(COc2ccc(-c3ccccc3)cc2)oc1NCc1cccnc1", "Potency": "active: 11.2 µM"}, {"smiles": "COc1ccc(-c2csc(NS(=O)(=O)c3ccc([N+](=O)[O-])cc3)n2)cc1", "Potency": "active: 35.5 µM"}, {"smiles": "C=CCOc1cccc(C2/C(=C(\\O)c3ccc4c(c3)OCCO4)C(=O)C(=O)N2CCN2CCOCC2)c1", "note": "(stereo not given)", "Potency": "inconclusive: 89.1 µM [inhibitor, single point]"}, {"smiles": "COc1ccc(Cl)cc1NC(=S)N(Cc1ccccc1C)CC1CCC(C(=O)O)CC1", "note": "(stereo not given)", "Potency": "inactive"}, {"smiles": "CCOP(=O)(c1ccccc1)c1nc(-c2ccccc2Cl)oc1N1CCCCC1", "note": "(stereo not given)", "Potency": "inconclusive: 89.1 µM [inhibitor, single point]"}, {"smiles": "CC(C)CCn1c(=O)c2ccccc2n2c(=S)[nH]nc12", "Potency": "active: 44.7 µM"}, {"smiles": "Cc1cccc(C)c1NC(=O)CCS(=O)(=O)c1ccc2c(c1)n(C)c(=O)c(=O)n2C", "Potency": "inconclusive: 39.8 µM [inhibitor, single point]"}]}]}
